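Compound exposure: 48 hours, 5 concentrations, 96-well plates. Here, GI50 denotes the concentration required for 50% inhibition of growth.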 The source made the active and inactive calls. No stated cut-off is given here; in the data, active = GI50 up to about 1.1 µM and inactive = higher.
tested on: NCI-H322M; experiment: growth of human tumour cells (NCI), 48 h

Row | SMILES | GI50
1 | CC1(c2ccccc2)CC(c2ccccc2)=NO1 (stereo not drawn) | inactive: > 100 µM
2 | Cc1c2c(c(C)c3c[n+](C)ccc13)Oc1ccccc1O2 | inactive: 14.4 µM
3 | COc1ccc2c3c1OC1C34CCN(C)C(C2)C4=CC(I)C1(OC)OC (stereo not drawn) | inactive: 16.9 µM
4 | CN(/N=C(\C(=O)O)c1ccccc1)C1=NCCCCN1 | inactive: > 100 µM
5 | CCc1cccc(C(C)CC)c1NC(=O)CC1C(=O)Nc2ccccc2[S+]1[O-] (stereo not drawn) | inactive: 89.9 µM
6 | c1ccc(SCCCC(Sc2ccccc2)Sc2ccccc2)cc1 | inactive: > 100 µM
7 | CC#C[P+](c1ccccc1)(c1ccccc1)c1ccccc1 | inactive: 11 µM
8 | O=C1C(C2=[N+]([O-])c3ccccc3C2=O)=[N+]([O-])c2ccccc21 | inactive: 34.9 µM
9 | CCCC(=O)Nc1cc(/C=C/C(=O)N2C[C@@H]3C[C@]34C2=CC(=O)c2[nH]cc(C)c24)n(C)c1 | active: 0.414 µM
10 | COc1ccc2c3c1C(=O)CCC3CO2 (stereo not drawn) | inactive: > 100 µM
11 | O=C1C(=O)N(C23CC4CC(CC(C4)C2)C3)C(=S)N1c1ccccc1 | inactive: > 100 µM
12 | CC1(N2CCOCC2)CC2C(=[N+]1[O-])CCC/C2=N/O (stereo not drawn) | inactive: 7.14 µM
13 | CCCCCCCCOC1C(O)C(O)C(O)C(O)C12CO2 (stereo not drawn) | inactive: > 100 µM
14 | O=C(NC12CC3CC(CC(C3)C1)C2)C(=O)c1c[nH]c2ccccc12 | inactive: 17.2 µM
15 | CCOC(=O)c1c(N2CCN(C)CC2)[nH]c(=O)c(C(c2c(Cl)cccc2Cl)c2c(O)c(C(=O)OCC)c(N3CCN(C)CC3)[nH]c2=O)c1O | inactive: 25.9 µM
16 | O=C1C=CC2(C=C1)O[C@H](COCc1ccccc1)[C@@H](COCc1ccccc1)O2 | inactive: 16.1 µM
17 | O=c1ccn(C2OC(CN(O)CCC3C(CO)OC(n4ccc(=O)[nH]c4=O)C3O)C(O)C2O)c(=O)[nH]1 (stereo not drawn) | inactive: > 100 µM
18 | Cc1cc(C)c2c(=O)n(CN3CC4Nc5ccccc5C4C3)sc2n1 (stereo not drawn) | inactive: 71.3 µM
19 | CC1=NNC(=O)C1C1CC(c2c[nH]c3ccccc23)=NN(c2ccccc2)C1=O (stereo not drawn) | inactive: > 100 µM
20 | O=C(C/N=C(\CN(c1ccccc1)c1ccccc1)Oc1c(Cl)cc(Cl)cc1Cl)N1c2ccccc2Sc2ccccc21 | inactive: > 100 µM
21 | Clc1cc2nn(C3CCCCO3)nc2cc1Cl (stereo not drawn) | inactive: > 100 µM
22 | COC(=O)CNC(=O)/C=C/[C@H](O[Si](C)(C)C(C)(C)C)[C@H](/C=C/C(=O)NCC(=O)OC)O[Si](C)(C)C(C)(C)C | inactive: > 25 µM
23 | N#CN=C(NCCO)NCCO | inactive: > 100 µM

Row | SMILES | GI50
24 | COc1ccccc1C1=C2C(=O)N(C)C(c3ccccc3OC)=C2C(=O)N1C | inactive: > 100 µM
25 | ClCCN(CC#CCCCC#CCN(CCCl)CCCl)CCCl | inactive: 16.9 µM
26 | N#CC12CC(C=O)=C(N)C1(C#N)CC(C=O)=C2N (stereo not drawn) | inactive: > 100 µM
27 | CCOc1ccc(/N=N/C2C(=O)N(C(=O)CC(=O)Nc3ccccc3)N=C2C)cc1 (stereo not drawn) | inactive: 33.1 µM
28 | CCOc1cc(C=O)ccc1O [ETHYL VANILLIN] | inactive: > 100 µM
29 | COc1cccc(C2CC(C)(O)Oc3cc4c(cc32)OCO4)c1 (stereo not drawn) | inactive: 53.5 µM
30 | O=C1NC(=S)NC(=O)C1C(c1ccc(Cl)cc1)C1C(=O)NC(=S)NC1=O.c1ccncc1 | inactive: > 100 µM
31 | COC(=O)CC1(O)C(/C=C/c2ccccc2)C(C(=O)OC)C(=O)C(C(=O)OC)C1C(=O)OC (stereo not drawn) | inactive: > 100 µM
32 | O=C1c2cccc3cccc(c23)C(=O)N1CCCNCCCCNCCCN1C(=O)c2cccc3cccc(c23)C1=O | active: 0.116 µM
33 | CCOC(=O)N1CCN(C=S)CC1 | inactive: > 100 µM
34 | CCOc1ccc(NC2=CC(=O)C(=O)c3ccccc32)cc1 | inactive: 7.66 µM
35 | COC(=O)C(NC(=O)CNC(=O)CSc1nnc(COc2ccc(Cl)cc2)n1-c1ccccc1)C(C)C (stereo not drawn) | inactive: 19.2 µM
36 | CC1CC2CCCC(=O)C2=C(O)O1 (stereo not drawn) | inactive: > 100 µM
37 | Cc1cc2ncn(C3CCCCO3)c2cc1C (stereo not drawn) | inactive: > 100 µM
38 | COC(=O)c1cc(-c2ccc(-c3ccc(O)cc3)cc2)cc(-c2ccc(-c3ccc(O)cc3)cc2)c1 | inactive: 13.1 µM
39 | CC(=O)OCC1OC(n2c3c(c(-c4ccco4)c(C#N)c2=S)CCC3)C(OC(C)=O)C(OC(C)=O)C1OC(C)=O (stereo not drawn) | inactive: > 100 µM
40 | CCN(CC)CCCNc1nc(=O)[nH]c(C)c1C(=O)Nc1c2ccccc2nc2ccccc12 | inactive: 14.8 µM
41 | Cn1c(N)c(Cc2ccc(Cl)cc2)c(=O)[nH]c1=O | inactive: > 100 µM
42 | N#CC(C(=O)CCC(=O)Nc1cccc(C(F)(F)F)c1)c1ccccc1 (stereo not drawn) | inactive: > 100 µM
43 | O=C(O)CNS(=O)(=O)c1ccc(NC(=O)Nc2ccccc2)cc1 | inactive: > 100 µM
44 | O=C(O)CCC1CCc2cccc(OCC(=O)O)c2C1=O (stereo not drawn) | inactive: > 100 µM
45 | FC(F)(F)c1ccc(Cc2nc3cc4ccccc4cc3[nH]2)cc1 | inactive: > 100 µM
46 | c1ccc(C[n+]2cccc(-c3cc4ccccc4[nH]3)c2)cc1 | inactive: 42 µM

Row | SMILES | GI50
47 | COc1ccc(CN2C(=O)[C@@H]3Cc4c(OC)c(C)c(OC)c(OC)c4[C@H](/C2=C\c2cc(OC)c(OC)c(C)c2OC)N3C(=O)OC(C)C)cc1 | inactive: > 100 µM
48 | CCCCCCCCCCC/C(=N/O)c1ccc(O)c2ncccc12 | inactive: 11 µM
49 | COC(=O)CCC(=O)N1C/C(=C\c2ccccc2)C(=O)/C(=C/c2ccccc2)C1 | inactive: 4.85 µM
50 | Oc1cccc(Nc2cc(O)nc(O)n2)c1 | inactive: > 100 µM
51 | CC(=O)O/N=C/c1cc2c(cc1Br)OCO2 | inactive: > 349 µM
52 | O=C1C/C(=N/c2ccc(Cl)cc2)C(c2ccccc2)N1c1ccccc1 (stereo not drawn) | inactive: 20.2 µM
53 | CCOC(=O)/C(C#N)=C\c1ccc(N(CCC(=O)O)CCC(=O)O)c(I)c1 | inactive: > 10 µM
54 | O=C1C2C(C(=O)N1Cc1ccccc1)N(Cc1ccccc1)C(=O)N2Cc1ccccc1 (stereo not drawn) | inactive: > 100 µM
55 | NCCOc1ccccn1 | inactive: > 100 µM
56 | C[n+]1cn(CC(=O)c2ccccc2)c(C(N)=O)c1N | inactive: > 100 µM
57 | C#C[C@@]1(O)CCCC2=CC3(CC[C@]21C)SCCS3 | inactive: > 100 µM
58 | C=C1CC2(OC1=O)c1ccccc1C=Cc1ccccc12 | inactive: 15.7 µM
59 | Cc1ccccc1C1OC(=O)c2ccccc21 (stereo not drawn) | inactive: > 100 µM
60 | Sc1nnc(CNc2ccc(-c3nnc(S)n3-c3ccc(Cl)cc3)cc2)n1-c1ccc(Cl)cc1 | inactive: 23.3 µM
61 | O=[N+]([O-])c1nccn1CC(O)CN1CC1 (stereo not drawn) | inactive: > 100 µM
62 | CCC/C(=N\NC(=S)N1CC2CCC(CC2)C1)c1ccccn1 | active: 0.288 µM
63 | COC(=O)c1cccc(C)c1C1CN=NC12Cc1cc(C)cc(C)c1C2=O (stereo not drawn) | inactive: 81.8 µM
64 | O=CC1C(Cl)=Nc2nc3ccccc3n2C1c1ccccc1 (stereo not drawn) | inactive: > 100 µM
65 | O=C1C2C(C(=O)N1c1ccccc1)C1(Br)c3ccccc3C2(Br)C2C(=O)N(c3ccccc3)C(=O)C21 (stereo not drawn) | inactive: > 62.2 µM
66 | O=C(O)/C=C/c1c[nH]cn1 | inactive: > 336 µM
67 | COc1cc(C2c3cc4c(cc3[C@@H](NCCN3CCCCC3)C3COC(=O)[C@H]23)OCO4)cc(OC)c1O (stereo partly drawn) | inactive: 3.72 µM
68 | COc1cc2ccnc3c2c(c1OC)N(C)C=C3 | inactive: 15.1 µM

From ChEMBL document CHEMBL1201862, “PubChem BioAssay data set” (2004)
